Results from PubChem BioAssay (NCI).
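These data come from cells grown in 96-well plates and exposed to compound for 48 hours at five concentrations. GI50 marks 50% less growth. At the TGI there is no net growth.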

System: NCI-H322M lung
Experiment: NCI anticancer screen, dose series, 48 h

| Structure (SMILES) | GI50 | TGI |
| --- | --- | --- |
| COc1ccc([C@@H]2[C@@H](O)C(=O)N2c2cc(OC)c(OC)c(OC)c2)cc1 | 284 nM | > 100000 nM |
| Cc1cc(C(NC(=O)CCCCCNc2cccc3c2C(=O)N(C2CCC(=O)NC2=O)C3=O)c2cccnc2)c(O)c2ncccc12 (stereo unspecified) | 49.4 nM | 4620 nM |
| Cc1nn(-c2ccccc2)c2ncnc(N/N=C/c3ccccc3O)c12 | 319 nM | > 67300 nM |
